Test results from PubChem BioAssay AID1345083 (National Center for Advancing Translational Sciences (NCATS), 2018).
In all, about 94,000 compounds went through this assay and about 6,200 (6.6%) were called active. The inconclusive results got no clear call from the source; some entries with a clear call stand among them for comparison. Calls come from the whole dose curve; as a rule, active = well fitted inhibition curve with a large enough effect; inconclusive = small, poorly fitted or top-dose-only effect; inactive = flat fitted curve, though single readings scatter. Potencies of inconclusive entries are doubtful fits and often do not repeat.

Test: Cytotoxic Profiling in HEK 293 Cell Line of Diverse Libraries Using Quantitative High-Throughput Screening; note: nearly all actives have a fitted effect of over 60% in size
Conditions: HEK 293 viability, ATP luminescence (CellTiter-Glo), 48-72 h; series mostly up to 115 µM
Summary of the method: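 Pintool-delivered compounds were incubated with HEK 293 cells (250 cells/well) at 37 degree Celsius for 48 or 72 hr. ATP-dependent luminescence (CellTiter-Glo) then reported remaining viable cells.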
Potency is the fitted concentration of half-maximal effect; tags give direction and shape of the fitted curve.

Row | Compound | Potency
1 | O=C(Nc1cccc(C(F)(F)F)c1)c1cnc2c(c1)N(C(=O)CCc1ccccc1)CCC2 | inconclusive: 28.2 µM [inhibitor, single point]
2 | COc1ccc(Cl)cc1-c1ccc2c(c1)C(=O)N1CCN(C(=O)C3CCCC3)C[C@H]1C(=O)N2 | inconclusive: 44.7 µM [inhibitor, partial curve, poor fit]
3 | COc1ccccc1N1CCCc2ncc(C(=O)Nc3cccc(C(F)(F)F)c3)cc21 | inconclusive: 112 µM [inhibitor, partial curve, poor fit]
4 | CC1CCCN(C(=O)CN2CCCc3nc(-c4ccccc4)ncc3C2=O)C1 (stereo not given) | active: 79.4 µM
5 | CCOC(=O)[C@@H]1CN(C(=O)NCc2ccccc2)[C@H]2c3cccc(F)c3O[C@@H]12 | inconclusive: 56.2 µM [inhibitor, partial curve, poor fit]
6 | Cc1cn2nc(-c3nc(C4CCCN(C(=O)Cc5ccc(F)cc5)C4)no3)cc2c(=O)[nH]1 (stereo not given) | inactive
7 | Cc1ccc(S(=O)(=O)NCCn2c(C)cnc2C2CCC2)cc1F | inconclusive: 89.1 µM [inhibitor, single point]
8 | CC(C)(C)C(=O)N1CCc2nc(-c3ccc(Cl)cc3)nc(-c3ccccc3)c2C1 | inconclusive: 50.1 µM [inhibitor, partial curve, poor fit]
9 | CN(C)c1cc(N2CCCC(NC(=O)c3ccsc3)C2)ncn1 (stereo not given) | inactive
10 | CCOc1ccccc1C(=O)NC1CCN(c2cc(C(F)(F)F)nc(C)n2)CC1 | inconclusive: 31.6 µM [inhibitor, partial curve, poor fit]
11 | O=c1[nH]c(C2CCCN(Cc3cccs3)C2)nc2ccc(F)cc12 (stereo not given) | inconclusive: 50.1 µM [inhibitor, partial curve, poor fit]
12 | CCC(C)NC(=O)N1CC(Oc2ccccc2-c2nc(-c3ccccc3)no2)C1 (stereo not given) | inconclusive: 50.1 µM [inhibitor, partial curve, poor fit]
13 | COc1ccc(-c2cc3nc4c(c(=O)n3[nH]2)CN(C(=O)CCc2ccccc2)CC4)cc1 | inactive
14 | COc1ccc2[nH]c3c(c2c1)CCNC31CCN(C(=O)c2ccsc2)CC1 | inconclusive: 50.1 µM [inhibitor, partial curve, poor fit]
15 | COc1ccc(CN(C)Cc2ccc(-c3ccccc3)cc2)cc1 | inconclusive: 100 µM [inhibitor, partial curve, poor fit]
16 | Cc1ccc(C)c(Cn2c(-c3ccc(Cl)cc3)nc(C)c(CCO)c2=O)c1 | inconclusive: 50.1 µM [inhibitor, partial curve, poor fit]
17 | COc1ccc(-n2c(=O)c(C(=O)NCCCc3ccccc3)nc3cccnc32)cc1 | inactive
18 | CCOCc1nc(C2CCCN(C(=O)NC(C)C)C2)no1 (stereo not given) | inactive
19 | CC(C)c1noc(CC2CCN(C(=O)c3ccsc3)CC2)n1 | inconclusive: 79.4 µM [inhibitor, single point]
20 | COc1ccc(CCC(=O)NCC2Cn3cccc3C(=O)N2Cc2cccnc2)cc1 (stereo not given) | inactive

Row | Compound | Potency
21 | CCCc1nnc(C[C@@H]2C[C@@H](C(C)C)[C@H](CN3CCC[C@H]3CO)C=C2C)o1 | inconclusive: 89.1 µM [inhibitor, partial curve]
22 | CCC(=O)N1CCCCCCNC(=O)[C@@H]2C[C@@H](C(=O)NCCc3c[nH]c4ccccc34)C[C@@H]21 | inconclusive: 44.7 µM [inhibitor, partial curve]
23 | COc1ccc(C(=O)N2CCN(C(=O)c3nnn4c3COC(c3ccc(F)cc3)C4)CC2)cc1 (stereo not given) | inconclusive: 50.1 µM [inhibitor, partial curve, poor fit]
24 | COc1cccc([S+](=O)([O-])N2CCC3(Cc4ccccc4NC3=O)C2)c1 (stereo not given) | inconclusive: 44.7 µM [inhibitor, partial curve, poor fit]
25 | CN(C)[S+](=O)([O-])c1ccc2c(c1)OCCN(Cc1ccc(Cl)cn1)C2 | inconclusive: 112 µM [inhibitor, partial curve, poor fit]
26 | CCn1c2c(c(=O)n1Cc1ccccc1)CCN(C(=O)COc1ccccc1)C2 | inactive
27 | COc1cccc(NC(=O)Cn2c(-c3ccccc3)nc(C)cc2=O)c1 | inconclusive: 89.1 µM [inhibitor, partial curve]
28 | CCc1nc2c(c(-c3ccc(O)cc3)n1)CN(Cc1ccc(OC)cc1)CC2 | inconclusive: 89.1 µM [inhibitor, single point]
29 | O=C(Cc1c[nH]c2ccccc12)N1CCC(c2nc(CCOCC3CCCC3)no2)C1 (stereo not given) | inconclusive: 50.1 µM [inhibitor, partial curve, poor fit]
30 | O=S(=O)(c1ccccc1)N1CCC(c2noc(C3CC3)n2)C1 (stereo not given) | inactive
31 | O=C([C@@H]1C[C@H](Oc2cccnc2)CN1C(=O)Cc1cccc(F)c1)N1CCOCC1 | inconclusive: 79.4 µM [inhibitor, partial curve]
32 | O=C(COc1ccccc1)N1CC(Oc2ccc(-c3noc(C4CCOCC4)n3)cc2)C1 | inconclusive: 89.1 µM [inhibitor, single point]
33 | Cc1ccc(CN2CCCC(C(=O)N3CCN(c4ccccn4)CC3)CCNC(=O)CC2)s1 (stereo not given) | inconclusive: 79.4 µM [inhibitor, partial curve]
34 | Cc1noc2c(NCCN(C)C)cc(-c3ccccn3)nc12 | active: 79.4 µM
35 | O=C(c1ccc(CNc2nccc(-c3cccnc3)n2)cc1)N1CCCCC1 | active: 39.8 µM
36 | COc1cccc(CC(=O)N2CC(c3noc(C4CCCN4C)n3)C2)c1 (stereo not given) | inconclusive: 89.1 µM [inhibitor, single point]
37 | Clc1ccc(CN2CCC[C@H]2c2nc(-c3ccc(N4CCOCC4)nc3)no2)cc1 | active: 63.1 µM
38 | CN1c2cc(C(=O)Nc3ccc(Oc4ccccc4)cc3)ccc2C(=O)N2CCCCCC21 (stereo not given) | active: 10 µM
39 | COc1ccccc1-c1cc(C(=O)Nc2ccc(C)cc2)nn2cnnc12 | active: 35.5 µM
40 | COc1ccccc1-c1nc(-c2c(C)noc2C)cc2[nH]c(C)cc12 | inconclusive: 56.2 µM [inhibitor, partial curve, poor fit]
